# Test results taken from the BET-seq Pho4 binding data (Le et al. 2018).
# Some of the results follow. The energies were worked out here from pooled read counts, against the library average; single values are noisy.
# Target: T1, Pho4 (S. cerevisiae) (UniProt P07270)
# T1 sequence: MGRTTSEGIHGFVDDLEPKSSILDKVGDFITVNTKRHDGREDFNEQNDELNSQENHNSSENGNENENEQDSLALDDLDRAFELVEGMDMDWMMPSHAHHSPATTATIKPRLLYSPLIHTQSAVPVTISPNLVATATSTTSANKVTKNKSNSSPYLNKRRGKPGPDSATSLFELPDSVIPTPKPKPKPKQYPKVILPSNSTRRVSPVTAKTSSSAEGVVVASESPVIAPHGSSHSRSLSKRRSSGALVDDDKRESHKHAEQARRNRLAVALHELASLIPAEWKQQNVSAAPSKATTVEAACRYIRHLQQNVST
# Assay: relative binding free energy (BET-seq); higher = weaker binding
# Conditions: reference: library average
row,Sequence,relative binding free energy [kcal/mol]
1,TAATCCACGTGGTGTT,-0.01
2,GGTGGCACGTGTTCTG,0.01
3,TTCATCACGTGTAAGG,0.16
4,TTTGACACGTGAAAGA,0.23
5,GGCGTCACGTGAGATT,0.51
6,TATAGCACGTGGTGCA,-0.19
7,ATGGACACGTGGTACG,-0.07
8,TATCTCACGTGTTTTT,0.17
9,AGTATCACGTGTGCTG,0.15
10,GGGTACACGTGATCGG,0.31
11,AATGTCACGTGGTGGT,0.09
12,GTGTACACGTGGAAAT,0.22
13,AGTGTCACGTGATGAA,0.16
14,AACGGCACGTGGTGAT,-0.18
15,GTATACACGTGCAGGT,0.02
16,TTGATCACGTGCGATG,0.14
17,CGTTTCACGTGTTGCG,0.18
18,TAATTCACGTGTGAGC,0.35
19,TTCTCCACGTGTTGTT,0.04
20,TAAGCCACGTGGGTTG,-0.27
21,CTCAGCACGTGGAGGT,0.01

row,Sequence,relative binding free energy [kcal/mol]
1,GTATGCACGTGTTGAT,-0.01
2,ATAAGCACGTGCTGGA,0
3,CCGGTCACGTGTGTGG,0.05
4,TTGGGCACGTGGAGCG,-0.09
5,TTGGCCACGTGCTGTG,-0.13
6,TGGGCCACGTGTAATG,0.1
7,TGATGCACGTGGTTGC,-0.03
8,AAGTGCACGTGCGTGG,-0.11
9,CGGTTCACGTGGATAG,0.44
10,TGACTCACGTGAAGGT,0.28
11,AACGTCACGTGAGGGG,0.18
12,TTAGTCACGTGTATCG,0.21
13,AGGGGCACGTGCAAAG,-0.14
14,TTGACCACGTGGTTAA,0.05
15,TTTTGCACGTGGCCTT,-0.09
16,GGGGACACGTGTGTAC,0.21
17,TGGCACACGTGGAGTT,0.14
18,ATGGCCACGTGGTGCG,-0.11
19,TTATGCACGTGTTTCA,-0.12
20,TGGATCACGTGCTGTG,0.14
21,GTCATCACGTGGTTAT,0.12

row,Sequence,relative binding free energy [kcal/mol]
1,AGTTTCACGTGTCTCT,0.21
2,AATTGCACGTGGGATA,-0.03
3,TGTGTCACGTGCAGGA,0.06
4,ATGGACACGTGGGGGC,-0.1
5,GCATACACGTGTTGTG,-0.15
6,AGATTCACGTGTGTAT,0.24
7,GTGTACACGTGCGGTC,0.15
8,CATTTCACGTGTCGGT,0.18
9,ACGGTCACGTGGGTAT,0
10,ATTGTCACGTGGTGAA,0.15
11,TTGGGCACGTGTGACG,0.04
12,GCGGGCACGTGGCGGT,-0.23
13,TAGGTCACGTGGCTTG,-0.02
14,ATTGACACGTGTTGTT,-0.04
15,GATAACACGTGTTGGA,0.08
16,GCTGTCACGTGTAATT,0.32
17,TTCCGCACGTGTGGGT,-0.07
18,TCGTTCACGTGAATAG,0.46
19,GTAGACACGTGGGCTG,-0.27
20,TAGTGCACGTGTTTCA,-0.06
21,TTGGGCACGTGGGCTA,-0.15
